# PubChem BioAssay AID504333 (National Center for Advancing Translational Sciences (NCATS), 2011)
# Among all 360,000 compounds or so, about 16,000 (4.4%) were called active. The inconclusive results got no clear call from the source; some entries with a clear call stand among them for comparison. Calls follow the shape of the dose curve; as a rule, active = well fitted inhibition curve with a large enough effect; inconclusive = small, poorly fitted or top-dose-only effect; inactive = no such curve, though single readings can be large or run the other way. Potencies of inconclusive entries are doubtful fits and often do not repeat.
# Target: Bromodomain adjacent to zinc finger domain protein 2B (Homo sapiens) (UniProt Q9UIF8)
# Test: qHTS Assay for Inhibitors of BAZ2B; also: nearly all actives have a fitted effect of over 60% in size
# Details: AlphaScreen BAZ2B-H3K14Ac peptide displacement; series mostly up to 114 µM
# Summary of the method: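 BAZ2B 50 nM plus b-H3(5-23)K14Ac 50 nM, PBS pH 7.4/0.01% Tween-20, 30 min RT; compound added (max 110 uM), 30 min RT; streptavidin donor/Ni-chelate acceptor beads 10 ug/mL final, 20 min dark; AlphaScreen read.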
# Potency is read from the fitted curve at half-maximal effect; tags tell the direction and shape of the fitted curve.
# Sequence of UniProt Q9UIF8 (Q9UIF8 whole entry, looked up, the tested form may be a part): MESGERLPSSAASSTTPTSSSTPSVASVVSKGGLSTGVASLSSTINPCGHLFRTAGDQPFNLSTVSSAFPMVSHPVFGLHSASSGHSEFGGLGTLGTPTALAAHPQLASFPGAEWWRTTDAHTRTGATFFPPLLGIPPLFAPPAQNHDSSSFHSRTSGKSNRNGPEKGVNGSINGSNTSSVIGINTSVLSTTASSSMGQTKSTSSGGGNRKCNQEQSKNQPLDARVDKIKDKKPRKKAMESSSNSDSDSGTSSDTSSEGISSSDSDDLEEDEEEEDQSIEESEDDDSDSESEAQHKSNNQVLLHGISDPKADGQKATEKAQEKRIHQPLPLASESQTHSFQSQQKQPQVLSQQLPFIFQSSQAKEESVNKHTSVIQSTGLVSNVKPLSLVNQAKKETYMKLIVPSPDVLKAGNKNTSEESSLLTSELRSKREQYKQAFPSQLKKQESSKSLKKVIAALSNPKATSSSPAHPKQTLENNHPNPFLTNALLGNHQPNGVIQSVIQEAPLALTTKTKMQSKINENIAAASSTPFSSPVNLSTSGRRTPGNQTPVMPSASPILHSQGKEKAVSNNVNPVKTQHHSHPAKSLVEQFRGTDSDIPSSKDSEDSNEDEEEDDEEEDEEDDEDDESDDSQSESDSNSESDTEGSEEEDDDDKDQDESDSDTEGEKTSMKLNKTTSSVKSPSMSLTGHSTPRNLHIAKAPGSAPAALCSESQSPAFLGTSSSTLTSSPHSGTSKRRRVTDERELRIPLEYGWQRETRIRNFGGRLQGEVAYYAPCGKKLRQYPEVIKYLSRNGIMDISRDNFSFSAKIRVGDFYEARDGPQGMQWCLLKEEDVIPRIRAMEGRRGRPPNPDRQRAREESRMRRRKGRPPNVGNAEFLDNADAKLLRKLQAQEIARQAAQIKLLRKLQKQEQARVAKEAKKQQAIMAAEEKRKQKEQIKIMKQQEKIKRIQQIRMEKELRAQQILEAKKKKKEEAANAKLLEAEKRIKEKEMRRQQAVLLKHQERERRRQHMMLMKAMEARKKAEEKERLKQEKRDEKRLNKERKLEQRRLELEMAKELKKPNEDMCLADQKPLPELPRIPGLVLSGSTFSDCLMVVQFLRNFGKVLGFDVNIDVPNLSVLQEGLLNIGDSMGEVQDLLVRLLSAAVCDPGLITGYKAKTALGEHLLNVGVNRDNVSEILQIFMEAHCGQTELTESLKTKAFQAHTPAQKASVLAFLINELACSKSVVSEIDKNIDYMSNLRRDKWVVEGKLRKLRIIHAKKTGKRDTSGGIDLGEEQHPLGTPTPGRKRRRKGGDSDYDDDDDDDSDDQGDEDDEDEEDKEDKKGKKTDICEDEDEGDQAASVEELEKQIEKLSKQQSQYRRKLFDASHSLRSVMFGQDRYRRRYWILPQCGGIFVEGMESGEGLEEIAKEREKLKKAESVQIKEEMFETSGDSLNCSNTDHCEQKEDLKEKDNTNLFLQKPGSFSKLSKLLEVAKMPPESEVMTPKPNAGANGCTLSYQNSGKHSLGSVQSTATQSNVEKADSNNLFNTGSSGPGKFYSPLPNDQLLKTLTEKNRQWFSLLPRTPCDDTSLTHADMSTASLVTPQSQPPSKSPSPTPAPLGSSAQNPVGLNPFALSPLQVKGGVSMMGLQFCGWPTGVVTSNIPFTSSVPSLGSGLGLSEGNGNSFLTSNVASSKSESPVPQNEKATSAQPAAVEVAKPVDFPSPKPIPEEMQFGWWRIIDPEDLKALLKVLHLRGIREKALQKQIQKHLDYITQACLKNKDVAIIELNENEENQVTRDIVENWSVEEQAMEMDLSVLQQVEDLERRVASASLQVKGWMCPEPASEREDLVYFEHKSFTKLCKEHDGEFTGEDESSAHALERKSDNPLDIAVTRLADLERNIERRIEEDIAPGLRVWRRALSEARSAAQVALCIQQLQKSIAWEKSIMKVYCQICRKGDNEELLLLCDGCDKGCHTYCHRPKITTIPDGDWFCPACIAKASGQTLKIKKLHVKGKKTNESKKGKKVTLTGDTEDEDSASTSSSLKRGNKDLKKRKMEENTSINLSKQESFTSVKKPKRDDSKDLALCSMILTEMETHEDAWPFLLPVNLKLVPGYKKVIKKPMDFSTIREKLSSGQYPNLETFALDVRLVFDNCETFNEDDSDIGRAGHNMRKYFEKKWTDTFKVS
row,SMILES,Potency
1,O=C(NC(=S)NNC(=O)c1ccccc1O)c1cccnc1,"inconclusive: 44.7 µM [inhibitor, full curve, poor fit]"
2,O=C(Nc1ccc(-c2csc(Nc3cccc(C(F)(F)F)c3)n2)cc1)c1cc([N+](=O)[O-])cc(C(F)(F)F)c1,inactive
3,Cc1cc(Cl)ccc1OCC(=O)N/N=C1\CC2C=CCC12 (stereo unspecified),inactive
4,COc1ccccc1NC(=O)C1CCC(CNS(=O)(=O)c2ccc3c(c2)CC(C)N3C(C)=O)CC1 (stereo unspecified),inactive
5,COc1cccc2c(=O)c3cccc(N)c3[nH]c12,"inconclusive: 79.4 µM [inhibitor, single point]"
6,COc1ccccc1CNC(=O)C1CCN(S(=O)(=O)c2ccc3c(c2)CC(C)N3C(=O)C2CC2)CC1 (stereo unspecified),"inconclusive: 89.1 µM [inhibitor, single point]"
7,Cc1cc(=O)oc(C)c1C(=O)NCc1ccccn1,active: 15.8 µM
8,COc1ccc2[nH]c3c(=O)n(Cc4ccc(C(=O)N5CCC(C(N)=O)CC5)cc4)c(=S)[nH]c3c2c1,"inconclusive: 79.4 µM [inhibitor, single point]"
9,Oc1ccc(/C=N\Nc2cc(N3CCOCC3)nc(N3CCOCC3)n2)c(O)c1,"inconclusive: 39.8 µM [inhibitor, partial curve]"
10,CC(O)c1nc2ccc(C(=O)O)cc2[nH]1 (stereo unspecified),"inconclusive: 79.4 µM [inhibitor, single point]"
11,Cc1ccc2nc3c(c(Nc4ccc(O)cc4)c2c1)CCC3,inactive
12,Cc1ccc(NC(=S)N2CCN(c3ccccc3F)CC2)c(C)c1,"inconclusive: 89.1 µM [inhibitor, single point]"
13,COCCNC(=S)N/N=C/c1ccccc1C(=O)O,"inconclusive: 100 µM [inhibitor, single point]"
14,COCCCNC(=S)N/N=C/c1cccc(OC)c1O,active: 6.31 µM
15,CN(C)/C=C/C(=O)c1ccc(Oc2ccccc2)cc1,"inconclusive: 79.4 µM [inhibitor, single point]"
16,c1coc(CN2CN=C(Nc3nc4ccccc4s3)NC2)c1,"inconclusive: 89.1 µM [inhibitor, single point]"
17,Cc1ccc2[nH]c(=O)c3cc(C(=O)NCCc4ccc(Cl)cc4)sc3c2c1,inactive
18,O=C1/C(=C/c2c[nH]c3ccccc23)CCC/C1=C\c1c[nH]c2ccccc12,"inconclusive: 39.8 µM [inhibitor, partial curve]"
19,CC1CCN(CCCCOc2ccccc2F)CC1,active: 50.1 µM
20,CC1=NN(c2ccccc2)C(=O)C1C(=O)C(=O)Nc1ccc(F)cc1 (stereo unspecified),"inconclusive: 89.1 µM [inhibitor, single point]"
21,CCn1c2ccccc2c2cc(CN3CCN(Cc4ccccc4C)CC3)ccc21,active: 56.2 µM
22,Cc1oc(C)c2c(=O)ccc3c(c12)OC(N)=C(C#N)C3c1ccc(F)cc1 (stereo unspecified),active: 56.2 µM

row,SMILES,Potency
1,COc1ccc(Cc2nnc(NS(=O)(=O)c3ccc([N+](=O)[O-])cc3)s2)cc1,"inconclusive: 70.8 µM [inhibitor, single point]"
2,CCC(=Cc1ccc(CC)cn1)CC,"inconclusive: 89.1 µM [inhibitor, single point]"
3,CCc1ccc(NC(=O)Cn2c(-c3cncs3)nc3ccccc32)cc1,"inconclusive: 20 µM [inhibitor, full curve, poor fit]"
4,O=C(O)c1ccc(NC2=C/C(=N/S(=O)(=O)c3ccccc3)c3ccccc3C2=O)cc1,active: 20 µM
5,CCC(CC)N1CCN(S(=O)(=O)c2ccc(OC)cc2)CC1,active: 50.1 µM
6,C/C(=N\NC(=O)CSCc1ccc([N+](=O)[O-])cc1)c1ccccc1O,"inconclusive: 63.1 µM [inhibitor, partial curve, poor fit]"
7,COc1cc(SC)ccc1C(=O)Nc1ccc2c(c1)OCO2,"inconclusive: 79.4 µM [inhibitor, single point]"
8,Cc1ccc(Cn2c(=S)[nH]c3ccc(N4CCOCC4)cc3c2=O)o1,"inconclusive: 79.4 µM [inhibitor, single point]"
9,Cc1cccc(Cc2c(C)nc3nc(SCC(=O)NCc4ccco4)nn3c2C)c1,"inconclusive: 89.1 µM [inhibitor, single point]"
10,CCc1ccc2c(c1)NC(c1ccc(OC)cc1)=NC(c1ccncc1)=N2,"inconclusive: 35.5 µM [inhibitor, partial curve]"
11,Cc1ccc(/C=C2\Sc3ccccc3C2=O)s1,active: 8.91 µM
12,COc1ccc(Br)cc1CNc1ccccc1,active: 50.1 µM
13,CCOC(=O)c1c(C)[nH]c(C(=O)OCc2ccc([N+](=O)[O-])cc2)c1C,"inconclusive: 89.1 µM [inhibitor, single point]"
14,COc1ccc(N2CCN(S(=O)(=O)c3cc4c(cc3C)N(C(C)=O)CCO4)CC2)cc1,"inconclusive: 89.1 µM [inhibitor, single point]"
15,COc1cc(/C=C/c2nc(C#N)c(N3CCC(C)CC3)o2)cc(OC)c1OC,"inconclusive: 25.1 µM [inhibitor, full curve]"
16,CCn1cc(C(=O)O)c(=O)c2cnc(N3CCN(C(=O)Nc4cccc5ccccc45)CC3)nc21,"inconclusive: 89.1 µM [inhibitor, partial curve]"
17,C#CCOCCOCCOCCNc1nc(N2CCN(C(=O)[C@H](CCC(=O)O)n3cc(C(N)Cc4ccc(O)cc4)nn3)CC2)nc(N2CCN(C(=O)[C@H](Cc3cc4ccccc4[nH]3)n3cc(C(N)[C@H](C)CC)nn3)CC2)n1 (stereo partly specified),active: 50.1 µM
18,CN(C)S(=O)(=O)c1ccc2nc(NC(=O)c3cccs3)sc2c1,"inconclusive: 3.98 µM [inhibitor, full curve, poor fit]"
19,COC(=O)c1ccc(CC(=O)c2c(C)cc(O)cc2O)o1,"inconclusive: 50.1 µM [inhibitor, partial curve]"
20,CN(CCCC1CCCC1)C(=O)CC1C(=O)NCCN1Cc1ccc(F)cc1 (stereo unspecified),"inconclusive: 79.4 µM [inhibitor, single point]"
21,CSc1ccccc1C(=O)NC1CCCCCC1,inactive
22,COc1ccccc1NC(=O)CSc1sc2c(O)cc(=O)[nH]c2c1C#N,"inconclusive: 79.4 µM [inhibitor, partial curve]"

row,SMILES,Potency
1,COc1ccc(S(=O)(=O)c2cnc(SCC(=O)Nc3cc(F)ccc3C)[nH]c2=O)cc1Cl,"inconclusive: 89.1 µM [inhibitor, single point]"
2,CC1CCN(C2=C(NS(=O)(=O)c3ccccc3)C(=O)c3ccccc3C2=O)CC1,active: 6.31 µM
3,CN(c1ccc(OCC(=O)OCC(=O)Nc2cccc([N+](=O)[O-])c2)cc1)S(=O)(=O)c1ccc(F)cc1,"inconclusive: 56.2 µM [inhibitor, partial curve, poor fit]"
4,Cc1ccc2cc(CN(Cc3ccco3)S(=O)(=O)c3c(C)ccc4nsnc34)c(=O)[nH]c2c1,"inconclusive: 79.4 µM [inhibitor, single point]"
5,CCOc1cccc(CN(C)CC2CCCN(CCc3ccc(Cl)cc3)C2)c1O (stereo unspecified),"inconclusive: 89.1 µM [inhibitor, single point]"
6,CN1CCN(C(=S)c2ccc(-c3cccc([N+](=O)[O-])c3)o2)CC1,"inconclusive: 44.7 µM [inhibitor, partial curve]"
7,Cc1ccc(C(=O)C2=C(O)C(=O)N(Cc3cccnc3)C2c2cccc([N+](=O)[O-])c2)o1 (stereo unspecified),"inconclusive: 79.4 µM [inhibitor, single point]"
8,COc1ccc(OC)c(NC(=O)CSc2nnc(C)n2Cc2ccccc2)c1,"inconclusive: 89.1 µM [inhibitor, single point]"
9,COc1cccc(NC(=O)CCc2nnc3ccc(N4CCN(c5cccc(OC)c5)CC4)nn23)c1,inactive
10,CC1CCc2c(sc(NC(=O)c3cc4nc(-c5ccc(Cl)cc5)cc(C(F)(F)F)n4n3)c2C#N)C1 (stereo unspecified),inactive
11,CN(CC(=O)Nc1cccc(F)c1)C(=O)c1ccccc1-n1cnnn1,inactive
12,O=c1c(Cl)c(N2CCOCC2)cnn1-c1nc2ccccc2[nH]1,"inconclusive: 79.4 µM [inhibitor, single point]"
13,Cc1nc(CC(=O)N/N=C/c2ccc(OCC(=O)O)cc2)cs1,"inconclusive: 89.1 µM [inhibitor, single point]"
14,Cc1ccc(/C=C/c2nc3ccccc3[nH]2)o1,inactive
15,COC(=O)c1ccc(CSc2nc(N3CCOCC3)c3c(c2C#N)CC(C)(C)OC3)o1,"inconclusive: 89.1 µM [inhibitor, single point]"
16,CCCCC(=NCCc1c(C)[nH]c2ccccc12)C1=C(O)CC(c2ccccc2)CC1=O (stereo unspecified),"inconclusive: 20 µM [inhibitor, full curve]"
17,Cc1cc(=O)n(CC(=O)N2CCN(c3ccc(F)cc3)CC2)c2c1c(C)nn2C,"inconclusive: 89.1 µM [inhibitor, single point]"
18,Cc1ccccc1Oc1cc(NC(=O)CCCn2nc(C)c([N+](=O)[O-])c2C)cc([N+](=O)[O-])c1,"inconclusive: 35.5 µM [inhibitor, full curve, poor fit]"
19,CNC(=O)c1[nH]cnc1C(=O)N[C@@H](CC(C)C)C(=O)OC(C)(C)C,"inconclusive: 89.1 µM [inhibitor, single point]"
20,O=C(Oc1ccc(Br)cc1C(=S)N1CCCC1)c1ccccc1Cl,inactive
21,CSCC[C@H](NC(=O)N1CCn2c1nc1ccccc12)C(=O)NCc1ccc(C)cc1,"inconclusive: 39.8 µM [inhibitor, partial curve]"
22,Cc1cc(C)c2sc(N(CCCN(C)C)C(=O)COc3ccc(Cl)cc3)nc2c1,"inconclusive: 56.2 µM [inhibitor, partial curve]"
